Assay results: the RNAGym collection of RNA variant scans (doi:10.1101/gad.245936.114)
Variants at the background level are over-represented here.

B1: tRNA (parent)
chain: CUCUCGGUAGCCAAGUUGGUUUAAGGCGCAAGACUUUAAUUUAUCACUACGAAAUCUUGAGAUCGGGCGUUCGACUCGCCCCCGGGAGAUUUUUUCCUCGAGCAA

Variants of: B1
Test: nonsense suppression (GFP-seq) (ratio to wild type); higher = more function; SUP4oc tRNA, yeast GFP reporter sort-seq
Method in brief: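 To measure nonsense suppression, tRNA variants from a library carrying ~3% random mutations were integrated into the yeast genome alongside RFP and a GFP ochre reporter under galactose control. Growth took place in raffinose/galactose medium supplemented with 80 mg/L adenine, followed by sorting into GFP/RFP bins and Illumina sequencing of each bin (phred ≥30). For each variant with ≥100 reads and ≥30 cells, the bin median GFP/RFP values were weighted by its estimated cell share per bin and referenced to the unmutated parent tRNA.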

G7C G25U C68U and G7C G26U cannot be ordered by nonsense suppression: no more than 0.026 for the first, no more than 0.026 for the second.

G7C G28A C80A and G7C G32U cannot be ordered by nonsense suppression: no more than 0.026 for the first, no more than 0.026 for the second.

G7C G67A and G7C G69U C80G cannot be ordered by nonsense suppression: no more than 0.026 for the first, no more than 0.026 for the second.

G7C G73C and G7C G78U cannot be ordered by nonsense suppression: no more than 0.026 for the first, no more than 0.026 for the second.

G7C G85U and G7C U16G C34U U63A C75A A89C cannot be ordered by nonsense suppression: no more than 0.026 for the first, no more than 0.026 for the second.

G7C U17A and G7C U17C cannot be ordered by nonsense suppression: no more than 0.026 for the first, no more than 0.026 for the second.

G7C U20C C27G C29A G59U C75G and G7C U20G A24U A33G G88C cannot be ordered by nonsense suppression: no more than 0.026 for the first, no more than 0.026 for the second.

G7C U22C G26A and G7C U22G G69A cannot be ordered by nonsense suppression: no more than 0.026 for the first, no more than 0.026 for the second.

G7C U22G U55C and G7C U35G cannot be ordered by nonsense suppression: no more than 0.026 for the first, no more than 0.026 for the second.

G7C U35G A62C and G7C U55G G59U cannot be ordered by nonsense suppression: no more than 0.026 for the first, no more than 0.026 for the second.

G7C U57A C75A and G7C U57A G61U cannot be ordered by nonsense suppression: no more than 0.026 for the first, no more than 0.026 for the second.

G7C U57A G65C G69A and G7C U57C U58G U71C cannot be ordered by nonsense suppression: no more than 0.026 for the first, no more than 0.026 for the second.

G7C U58G and G7C U70A cannot be ordered by nonsense suppression: no more than 0.026 for the first, no more than 0.026 for the second.

G7C U70G and G7C U71A cannot be ordered by nonsense suppression: no more than 0.026 for the first, no more than 0.026 for the second.

G7C U76C and G7C U76G G86U cannot be ordered by nonsense suppression: no more than 0.026 for the first, no more than 0.026 for the second.

G7U and G7U A9C A23G cannot be ordered by nonsense suppression: no more than 0.026 for the first, no more than 0.026 for the second.

G7U A9G U55A and G7U A9U A23C C34G G65A G67U cannot be ordered by nonsense suppression: no more than 0.026 for the first, no more than 0.026 for the second.

G7U A9U G78A and G7U A13G G61A U76G G86C cannot be ordered by nonsense suppression: no more than 0.026 for the first, no more than 0.026 for the second.

G7U A13G U17A and G7U A14C G66C G88C cannot be ordered by nonsense suppression: no more than 0.026 for the first, no more than 0.026 for the second.

G7U A14G G59U A89C and G7U A14G G78A cannot be ordered by nonsense suppression: no more than 0.026 for the first, no more than 0.026 for the second.

G7U A14G U35G and G7U A14G U57C G78A cannot be ordered by nonsense suppression: no more than 0.026 for the first, no more than 0.026 for the second.

G7U A14U U16C A24U and G7U A23C G25C G26C G67U U70A C77A G86A cannot be ordered by nonsense suppression: no more than 0.026 for the first, no more than 0.026 for the second.

G7U A23U G88C and G7U A24C C68G G85A cannot be ordered by nonsense suppression: no more than 0.026 for the first, no more than 0.026 for the second.

G7U A24C C68U and G7U A24G cannot be ordered by nonsense suppression: no more than 0.026 for the first, no more than 0.026 for the second.

G7U A24G A89G and G7U A24U cannot be ordered by nonsense suppression: no more than 0.026 for the first, no more than 0.026 for the second.

G7U A24U G67U U71C and G7U A30G G32A A33C G69U U70C G86C cannot be ordered by nonsense suppression: no more than 0.026 for the first, no more than 0.026 for the second.

G7U A30U C34U G65U and G7U A30U U55A cannot be ordered by nonsense suppression: no more than 0.026 for the first, no more than 0.026 for the second.

G7U A31C U76C A89G and G7U A31G A60C cannot be ordered by nonsense suppression: no more than 0.026 for the first, no more than 0.026 for the second.

G7U A31G C34A C75A and G7U A31U G84A cannot be ordered by nonsense suppression: no more than 0.026 for the first, no more than 0.026 for the second.

G7U A33C and G7U A33G cannot be ordered by nonsense suppression: no more than 0.026 for the first, no more than 0.026 for the second.

G7U A33G A60G C72U and G7U A33U cannot be ordered by nonsense suppression: no more than 0.026 for the first, no more than 0.026 for the second.

Compared with G7U A54C, G7U A54G is lower in nonsense suppression: 0.0394 for the first, no more than 0.026 for the second.

G7U A54G G61A and G7U A54U U63C G88U cannot be ordered by nonsense suppression: no more than 0.026 for the first, no more than 0.026 for the second.

G7U A60G and G7U A62U C72G cannot be ordered by nonsense suppression: no more than 0.026 for the first, no more than 0.026 for the second.

G7U A62U C80A C81U and G7U A74C cannot be ordered by nonsense suppression: no more than 0.026 for the first, no more than 0.026 for the second.

G7U C11U C27A U76C and G7U C11U C56G cannot be ordered by nonsense suppression: no more than 0.026 for the first, no more than 0.026 for the second.

G7U C11U U58G and G7U C12A G15A C83G cannot be ordered by nonsense suppression: no more than 0.026 for the first, no more than 0.026 for the second.

G7U C12G A31G U57C C77A and G7U C12G G25U G32C G69U cannot be ordered by nonsense suppression: no more than 0.026 for the first, no more than 0.026 for the second.

G7U C12U U58G U76C and G7U C27A U57A G84U cannot be ordered by nonsense suppression: no more than 0.026 for the first, no more than 0.026 for the second.

G7U C27G and G7U C27G G69U cannot be ordered by nonsense suppression: no more than 0.026 for the first, no more than 0.026 for the second.

G7U C27G U76A and G7U C27U G65C cannot be ordered by nonsense suppression: no more than 0.026 for the first, no more than 0.026 for the second.

G7U C27U G73A and G7U C29U G65A C77A G88C cannot be ordered by nonsense suppression: no more than 0.026 for the first, no more than 0.026 for the second.

G7U C34U G66A C82A and G7U C34U U71A cannot be ordered by nonsense suppression: no more than 0.026 for the first, no more than 0.026 for the second.

G7U C56U and G7U C79A G86C cannot be ordered by nonsense suppression: no more than 0.026 for the first, no more than 0.026 for the second.

Compared with G7U C81A, G7U C82A is higher in nonsense suppression: no more than 0.026 for the first, 1.02 for the second.

G7U C83A and G7U G10C U21C C29U G66U cannot be ordered by nonsense suppression: no more than 0.026 for the first, no more than 0.026 for the second.

G7U G10U G67C and G7U G15U A87C cannot be ordered by nonsense suppression: no more than 0.026 for the first, no more than 0.026 for the second.

G7U G15U G59A and G7U G15U G84U cannot be ordered by nonsense suppression: no more than 0.026 for the first, no more than 0.026 for the second.

G7U G18A C83U and G7U G18U A31G C82A cannot be ordered by nonsense suppression: no more than 0.026 for the first, no more than 0.026 for the second.

G7U G18U C82A and G7U G18U G65U C81A cannot be ordered by nonsense suppression: no more than 0.026 for the first, no more than 0.026 for the second.

G7U G19A and G7U G19A A74C C79G cannot be ordered by nonsense suppression: no more than 0.026 for the first, no more than 0.026 for the second.

G7U G19A U21G and G7U G19C G32U cannot be ordered by nonsense suppression: no more than 0.026 for the first, no more than 0.026 for the second.

G7U G25A C27U A60G and G7U G26A C34G cannot be ordered by nonsense suppression: no more than 0.026 for the first, no more than 0.026 for the second.

G7U G26A G86C and G7U G26C U71G C82G cannot be ordered by nonsense suppression: no more than 0.026 for the first, no more than 0.026 for the second.

G7U G28U A31U G67C and G7U G28U U71G C72A G86U cannot be ordered by nonsense suppression: no more than 0.026 for the first, no more than 0.026 for the second.

G7U G32C U70C and G7U G59A cannot be ordered by nonsense suppression: no more than 0.026 for the first, no more than 0.026 for the second.

G7U G59A C79U and G7U G61A cannot be ordered by nonsense suppression: no more than 0.026 for the first, no more than 0.026 for the second.

G7U G65A and G7U G66C G84C G86C cannot be ordered by nonsense suppression: no more than 0.026 for the first, no more than 0.026 for the second.

G7U G67C and G7U G69C cannot be ordered by nonsense suppression: no more than 0.026 for the first, no more than 0.026 for the second.

G7U G69U G88A and G7U G73C cannot be ordered by nonsense suppression: no more than 0.026 for the first, no more than 0.026 for the second.

G7U G78A and G7U G78U cannot be ordered by nonsense suppression: no more than 0.026 for the first, no more than 0.026 for the second.

G7U U8C A14U G15U U57A and G7U U8G cannot be ordered by nonsense suppression: no more than 0.026 for the first, no more than 0.026 for the second.

G7U U8G G19U U21C U35A A74G G88U and G7U U16A cannot be ordered by nonsense suppression: no more than 0.026 for the first, no more than 0.026 for the second.

G7U U16G and G7U U16G C80G cannot be ordered by nonsense suppression: no more than 0.026 for the first, no more than 0.026 for the second.

G7U U17A C64A G67C and G7U U17C U22C cannot be ordered by nonsense suppression: no more than 0.026 for the first, no more than 0.026 for the second.

G7U U17C U57G U70C and G7U U17G A24G U76C cannot be ordered by nonsense suppression: no more than 0.026 for the first, no more than 0.026 for the second.

G7U U20A G32U G84C and G7U U20C A33G A54U cannot be ordered by nonsense suppression: no more than 0.026 for the first, no more than 0.026 for the second.

G7U U21G and G7U U21G A23U C79G cannot be ordered by nonsense suppression: no more than 0.026 for the first, no more than 0.026 for the second.

G7U U21G U70A A89G and G7U U22A cannot be ordered by nonsense suppression: no more than 0.026 for the first, no more than 0.026 for the second.

G7U U22A C34U U57G U63C and G7U U22C C27A G73C cannot be ordered by nonsense suppression: no more than 0.026 for the first, no more than 0.026 for the second.

G7U U35A C64G G84C and G7U U35C U57C U70A C80U G88U cannot be ordered by nonsense suppression: no more than 0.026 for the first, no more than 0.026 for the second.

G7U U55A G86U and G7U U55C C72A A74G cannot be ordered by nonsense suppression: no more than 0.026 for the first, no more than 0.026 for the second.

G7U U57A G59C C64A U70G and G7U U57C G88A cannot be ordered by nonsense suppression: no more than 0.026 for the first, no more than 0.026 for the second.

G7U U57G A62C C80U and G7U U58A cannot be ordered by nonsense suppression: no more than 0.026 for the first, no more than 0.026 for the second.

G7U U58A G61A and G7U U63A A89U cannot be ordered by nonsense suppression: no more than 0.026 for the first, no more than 0.026 for the second.

G7U U63C and G7U U63C G73C cannot be ordered by nonsense suppression: no more than 0.026 for the first, no more than 0.026 for the second.

G7U U63G U71A and G7U U70G cannot be ordered by nonsense suppression: no more than 0.026 for the first, no more than 0.026 for the second.

G7U U71C and U8A cannot be ordered by nonsense suppression: no more than 0.026 for the first, no more than 0.026 for the second.

First: U8A A9G
Second: U8A A9G C11U A30G U58G U71C
The nonsense suppression of the first is higher: 0.0277 for the first, no more than 0.026 for the second.

U8A A9G C27G U76A and U8A A9G C56G cannot be ordered by nonsense suppression: no more than 0.026 for the first, no more than 0.026 for the second.

U8A A9G U57C U63A and U8A A9U G25U cannot be ordered by nonsense suppression: no more than 0.026 for the first, no more than 0.026 for the second.

U8A A9U U21G C64A and U8A A13C U17C G86C cannot be ordered by nonsense suppression: no more than 0.026 for the first, no more than 0.026 for the second.

U8A A13G C34A and U8A A13U G19A A62G G67A U71C cannot be ordered by nonsense suppression: no more than 0.026 for the first, no more than 0.026 for the second.

With U8A A14C U20C A24C the nonsense suppression was no more than 0.026.
